The whole screen tested about 39,000 compounds, of which about 220 (0.56%) showed activity. The list shows a part of the results.
System: Escherichia coli K-12 BW25113
Assay: relative growth (OD600 normalised to plate interquartile mean) (fraction); higher = less growth inhibition, active = 0.2 or less
Details: 50 µM; LB; incubation time: overnight (16-24 h)
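Also: static incubation at 37 °C against the wild-type strain, values averaged over two biological replicates.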

SMILES | relative growth
CC(C)N1C[C@@H](CNCc2ccc(Oc3ccccc3)cc2)Oc2c(NC(=O)c3ccncc3)cccc2C1=O | inactive: 1.01
C[C@@H]1CN([C@@H](C)CO)C(=O)CCCn2nncc2CO[C@@H]1CN(C)S(=O)(=O)c1ccc(-n2cccn2)cc1 | inactive: 0.987
C[C@@H]1CCCCO[C@@H](CN(C)C(=O)Nc2ccc3c(c2)OCO3)[C@H](C)CN([C@H](C)CO)C(=O)c2cc(NC(=O)Nc3ccccc3)ccc2O1 | inactive: 0.993
Cc1ccc(-c2cnc3c(c2)C(=O)N([C@H](C)CO)C[C@H](C)[C@H](CN(C)C(=O)Cc2ccncc2)O3)cc1 | inactive: 1.01
COc1ccc(CN(C)C[C@H]2OCCCC[C@H](C)Oc3ccc(NC(=O)Nc4cccc5ccccc45)cc3C(=O)N([C@@H](C)CO)C[C@@H]2C)cc1 | inactive: 1.01
Cc1ccc(S(=O)(=O)N(C)C[C@H]2OCCCC[C@H](C)Oc3ccc(NC(=O)Nc4ccc5c(c4)OCO5)cc3C(=O)N([C@H](C)CO)C[C@H]2C)cc1 | inactive: 1.01
Cc1ccc(S(=O)(=O)N(C)C[C@H]2OCCCC[C@@H](C)Oc3ccc(NC(=O)Cc4ccccc4)cc3C(=O)N([C@@H](C)CO)C[C@H]2C)cc1 | inactive: 1.03
C[C@@H]1CCCCO[C@H](CN(C)S(=O)(=O)c2ccc(F)cc2)[C@H](C)CN([C@@H](C)CO)C(=O)c2cc(NC(=O)C3CCCCC3)ccc2O1 | inactive: 1.02
Cc1ccc(S(=O)(=O)Nc2ccc3c(c2)CC(=O)N([C@H](C)CO)C[C@@H](C)[C@@H](CN(C)S(=O)(=O)c2ccccc2)O3)cc1 | inactive: 1
O=C(O)C[C@H]1Oc2ccccc2NC1=O | inactive: 0.862
CNC(=O)CN1CCOC[C@@]2(C1)CN(Cc1ccn(C)n1)CCO2 | inactive: 1.01
C[C@H](CO)N1C[C@H](C)[C@@H](CN(C)CC2CCCCC2)OCCCC[C@H](C)Oc2ccc(NS(=O)(=O)c3ccc(F)cc3)cc2C1=O | inactive: 0.974
C[C@@H]1CN([C@H](C)CO)C(=O)c2cc(NC(=O)c3ccccc3)ccc2O[C@@H](C)CCCCO[C@@H]1CN(C)Cc1ccc(C(=O)O)cc1 | inactive: 0.983
C[C@H](CO)N1C[C@H](C)[C@H](CN(C)S(C)(=O)=O)OCCCC[C@H](C)Oc2ccc(N(C)C)cc2C1=O | inactive: 0.998
NC(Cc1ccc(O)c(O)c1)C(=O)O (stereo not given) | inactive: 1.03
CNC[C@H]1OCCCC[C@@H](C)Oc2ccc(NS(=O)(=O)c3c(C)noc3C)cc2C(=O)N([C@@H](C)CO)C[C@H]1C | inactive: 0.916
C[C@@H]1CCCCO[C@H](CN(C)C(=O)NC2CCCCC2)[C@H](C)CN([C@H](C)CO)C(=O)c2cc(NS(=O)(=O)c3ccc(F)cc3)ccc2O1 | inactive: 0.995
C[C@@H]1CCCCO[C@H](CN(C)CC2CCCCC2)[C@H](C)CN([C@@H](C)CO)C(=O)c2cc(NC(=O)Nc3ccc(F)cc3)ccc2O1 | inactive: 0.95
CCCCCCc1nc(CCCc2cc3c(c(CCCCCC)n2)[Si](C(C)C)(C(C)C)OC3)cc2c1[Si](C(C)C)(C(C)C)OC2 | inactive: 0.986
COc1ccc(CNC(=O)C[C@H]2CC[C@@H]3[C@H](COc4ccc(NC(=O)C5CC5)cc4C(=O)N3C)O2)cc1 | inactive: 0.973

SMILES | relative growth
C[C@@H]1CN([C@@H](C)CO)C(=O)CCCn2cc(nn2)CO[C@H]1CN(C)C(=O)c1cc(-c2ccccc2)on1 | inactive: 0.996
C[C@@H]1CCCCO[C@H](CN(C)C(=O)C2CCCCC2)[C@H](C)CN([C@@H](C)CO)C(=O)c2cc(NS(=O)(=O)c3cccs3)ccc2O1 | inactive: 1.02
C[C@@H]1CN([C@H](C)CO)C(=O)c2cc(NC(=O)Nc3cccc4ccccc34)ccc2O[C@@H]1CN(C)Cc1ccc(C(=O)O)cc1 | inactive: 1.01
C[C@H]1CCn2cc(nn2)COC[C@@H](Cc2ccccc2)NC(=O)[C@@H](C)CCn2cc(nn2)COC[C@@H](Cc2ccccc2)NC1=O | inactive: 0.984
COc1ccc(NC(=O)Nc2ccc3c(c2)C(=O)N([C@@H](C)CO)C[C@H](C)[C@H](CN(C)C(=O)Nc2ccc(F)cc2)OCCCC[C@H](C)O3)cc1 | inactive: 1.04
COc1ccc2c3c([nH]c2c1)[C@H](CO)N(C[C@]13CCN(CC1)S(=O)(=O)c1ccccc1)C(=O)c1cnccn1 | inactive: 0.985
CCCCCOc1ccc([C@H]2C(C(=O)c3ccc4c(c3)OCCO4)=C(O)C(=O)N2Cc2ccco2)cc1 | inactive: 1
O=C(c1ccc(F)cc1)N1c2ccccc2C=Cc2ccccc21 | inactive: 1.02
C[C@@H]1CN([C@H](C)CO)C(=O)c2cc(NS(=O)(=O)c3cn(C)cn3)ccc2O[C@@H](C)CCCCO[C@@H]1CN(C)S(=O)(=O)c1cccs1 | inactive: 0.964
O=C(c1cccnc1)N1C[C@H]2[C@@H](c3ccccc31)[C@@H](CO)N2C(=O)CN1CCOCC1 | inactive: 0.983
C[C@H]1CCCCO[C@H](CN(C)C(=O)Nc2ccc(F)cc2)[C@@H](C)CN([C@@H](C)CO)C(=O)c2cc(NC(=O)CCCN(C)C)ccc2O1 | inactive: 0.981
C[C@H]1CN([C@@H](C)CO)C(=O)c2cccc(NC(=O)c3cnccn3)c2O[C@H]1CN(C)S(=O)(=O)c1ccc(Cl)cc1 | inactive: 0.985
COc1cccc(NC(=O)N[C@H]2C=C[C@H](CC(=O)N3CCN(C)CC3)O[C@H]2CO)c1 | inactive: 0.995
Cc1cc(C(=O)Nc2ccc3c(c2)C(=O)N(C)[C@@H]2CC[C@@H](CC(=O)NCC(F)(F)F)O[C@H]2CO3)no1 | inactive: 1.01
C[C@@H]1CN([C@@H](C)CO)C(=O)c2ccccc2-c2ccccc2CO[C@@H]1CN(C)C(=O)c1cc(Cl)cc(Cl)c1 | inactive: 1.01
C[C@@H]1CN([C@@H](C)CO)C(=O)c2cc(/C=C/c3ccccc3)cnc2O[C@@H]1CN(C)C(=O)C1CCOCC1 | inactive: 1.02
COc1cccc(S(=O)(=O)Nc2ccc3c(c2)C(=O)N(C)C[C@H](OC)[C@H](C)CN(C(=O)Cc2cccnc2)[C@H](C)CO3)c1 | inactive: 1.02
C[C@@H]1CCCCO[C@H](CN(C)C(=O)c2ccncc2)[C@H](C)CN([C@@H](C)CO)C(=O)c2cc(NS(=O)(=O)c3ccc(Cl)cc3)ccc2O1 | inactive: 0.994
C[C@H]1CN([C@@H](C)CO)C(=O)c2cc(NC(=O)C3CCCCC3)ccc2O[C@@H]1CN(C)Cc1ccc(-c2ccccc2)cc1 | inactive: 0.979
C[C@H](CO)N1C[C@H](C)[C@H](CN(C)S(=O)(=O)c2cccs2)Oc2c(NS(=O)(=O)c3cn(C)cn3)cccc2C1=O | inactive: 0.987

SMILES | relative growth
C[C@@H]1CN([C@@H](C)CO)C(=O)c2cc(NC(=O)c3ccncc3)ccc2O[C@@H](C)CCCCO[C@@H]1CN(C)Cc1ccc(C(F)(F)F)cc1 | inactive: 0.966
COc1ccc(S(=O)(=O)N2C[C@@H](O)COC[C@H]3O[C@H](CC(=O)NCc4ccc(Cl)c(Cl)c4)CC[C@@H]32)cc1 | inactive: 0.991
COc1ccc(S(=O)(=O)N(C)C[C@@H]2Oc3ccc(NC(=O)Cn4cnnn4)cc3C(=O)N([C@@H](C)CO)C[C@@H]2C)cc1 | inactive: 1.02
C[C@H]1CN([C@@H](C)CO)C(=O)Cc2cc(NC(=O)C3CC3)ccc2O[C@@H]1CN(C)S(=O)(=O)c1cn(C)cn1 | inactive: 0.975
C[C@@H]1CCCCO[C@H](CN(C)S(=O)(=O)c2cccs2)[C@H](C)CN([C@@H](C)CO)C(=O)c2cc(NC(=O)Nc3cccc4ccccc34)ccc2O1 | inactive: 1.03
Cn1cnc(CCNC(=O)C[C@@H]2CC[C@@H]3[C@H](COC[C@@H](O)CN3C(=O)Nc3ccc(C(F)(F)F)cc3)O2)c1 | inactive: 0.976
COc1ccccc1C#Cc1ccc2c(c1)O[C@H](CN(C)Cc1ccncc1)[C@H](C)CN([C@H](C)CO)S2(=O)=O | inactive: 0.999
C[C@@H](NC(=O)C[C@@H]1C=C[C@H](NC(=O)CN2CCOCC2)[C@@H](CO)O1)c1ccccc1 | inactive: 0.976
C[C@H]1CN([C@@H](C)CO)C(=O)c2cccc(NS(=O)(=O)c3cccs3)c2O[C@H]1CN(C)Cc1ccc(Oc2ccccc2)cc1 | inactive: 1.02
COc1ccc(S(=O)(=O)Nc2ccc3c(c2)C(=O)N([C@H](C)CO)C[C@H](C)[C@@H](CN(C)C(=O)Nc2c(C)noc2C)OCCCC[C@H](C)O3)cc1 | inactive: 1
CC(C)Oc1ccc(Cl)cc1CN | inactive: 0.968
O=C(O)C1(c2cccs2)CCCC1 | inactive: 1.01
C[C@@H]1CN([C@@H](C)CO)C(=O)CCCn2nncc2CO[C@H]1CN(C)C(=O)Nc1cccc2ccccc12 | inactive: 0.994
C[C@H]1CN([C@@H](C)CO)S(=O)(=O)c2ccc(C#Cc3ccc(F)cc3)cc2O[C@H]1CN(C)S(C)(=O)=O | inactive: 1.02
Cl.NCCCCCC(=O)O | inactive: 1.13
COc1ccc(S(=O)(=O)Nc2ccc3c(c2)C(=O)N([C@H](C)CO)C[C@H](C)[C@H](CN(C)S(=O)(=O)c2ccc(C)cc2)O3)cc1 | inactive: 0.998
C[C@H](CO)N1C[C@H](C)[C@H](CN(C)C(=O)Nc2ccc(F)cc2)Oc2ncc(C#Cc3ccc(C(F)(F)F)cc3)cc2C1=O | inactive: 0.995
C[C@H]1CN([C@@H](C)CO)S(=O)(=O)c2ccc(-c3cccnc3)cc2O[C@@H]1CN(C)C(=O)NC1CCCCC1 | inactive: 0.971
CCCCS(=O)(=O)NC1=NCN(CCO)CN1 | inactive: 1.01
Cc1noc(C)c1NC(=O)N(C)C[C@@H]1OCCCC[C@@H](C)Oc2ccc(NC(=O)Nc3ccc(C(F)(F)F)cc3)cc2C(=O)N([C@H](C)CO)C[C@H]1C | inactive: 0.997
